Measured values: article PMC4336329 (PLoS ONE, 2015)
The campaign covered roughly 310,000 compounds. About 14,000 (4.5%) showed an effect of 50% or more. The effect is printed as a negative number. Some of the results follow.

Target: human ether-à-go-go-related gene (hERG) potassium channel (human, UniProt Q12809)
Assay: primary screen, population patch clamp on CHO cells stably expressing hERG
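Also: peak tail current of the secondary pulse compared with the same well before compound.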

Chain of human ether-à-go-go-related gene (hERG) potassium channel (Q12809 whole entry, looked up): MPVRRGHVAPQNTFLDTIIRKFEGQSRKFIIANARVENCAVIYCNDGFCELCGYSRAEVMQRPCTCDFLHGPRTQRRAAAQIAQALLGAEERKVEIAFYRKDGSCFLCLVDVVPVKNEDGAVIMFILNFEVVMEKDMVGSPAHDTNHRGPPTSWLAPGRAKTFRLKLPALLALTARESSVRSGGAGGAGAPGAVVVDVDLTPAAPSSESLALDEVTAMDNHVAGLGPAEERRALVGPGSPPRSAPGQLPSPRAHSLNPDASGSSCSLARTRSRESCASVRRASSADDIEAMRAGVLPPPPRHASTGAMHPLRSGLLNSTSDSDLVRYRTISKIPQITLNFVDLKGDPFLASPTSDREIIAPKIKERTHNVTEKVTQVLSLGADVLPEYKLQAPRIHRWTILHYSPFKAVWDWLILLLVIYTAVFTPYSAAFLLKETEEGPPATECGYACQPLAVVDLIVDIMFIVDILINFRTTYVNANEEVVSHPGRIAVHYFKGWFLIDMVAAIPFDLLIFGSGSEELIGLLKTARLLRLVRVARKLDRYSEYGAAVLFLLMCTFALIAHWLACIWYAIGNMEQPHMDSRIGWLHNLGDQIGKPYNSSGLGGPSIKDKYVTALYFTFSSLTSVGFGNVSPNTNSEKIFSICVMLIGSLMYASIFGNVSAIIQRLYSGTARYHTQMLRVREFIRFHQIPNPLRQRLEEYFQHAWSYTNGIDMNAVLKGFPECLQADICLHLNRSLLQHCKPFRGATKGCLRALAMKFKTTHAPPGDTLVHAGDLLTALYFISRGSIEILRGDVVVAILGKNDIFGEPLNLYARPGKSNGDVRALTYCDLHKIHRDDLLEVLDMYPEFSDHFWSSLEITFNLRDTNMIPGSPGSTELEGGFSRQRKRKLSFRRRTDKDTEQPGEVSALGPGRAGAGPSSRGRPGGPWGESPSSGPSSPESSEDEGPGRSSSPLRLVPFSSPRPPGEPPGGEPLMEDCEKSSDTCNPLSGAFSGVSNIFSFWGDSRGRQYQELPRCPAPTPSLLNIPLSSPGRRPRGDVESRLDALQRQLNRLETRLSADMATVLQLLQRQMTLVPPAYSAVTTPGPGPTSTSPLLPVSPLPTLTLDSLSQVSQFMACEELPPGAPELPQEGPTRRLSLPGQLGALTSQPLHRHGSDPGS

Compound	hERG current change (%, negative = inhibition) at 10uM [%]
CN(C)c1ccc(CNc2nc3ccccc3s2)cc1	11.2
Cc1cccc2c(N=Nc3ccc(S(=O)(=O)Nc4cccc(Cl)c4)cc3[N+](=O)[O-])c(O)[nH]c12	30.1
CC1CC(C)CN(c2cc3c(cc2[N+](=O)[O-])C(=O)N(c2ccccc2)C3=O)C1 (centres unmarked)	-3.4
Cc1ccc(-n2[nH]c(C)c(C=Nc3ccc(S(=O)(=O)Nc4nccs4)cc3)c2=O)cc1	2.81
O=C(/C=C/c1cccs1)Nc1nc(-c2ccccc2)cs1	6.61
CCOC(=O)c1nnn(CC(=O)N2N=C(c3ccc(Cl)cc3)CC2c2ccccc2)c1C(=O)OCC (centres unmarked)	-28
COc1ccc(C(=O)N/N=C(\C)CC(=O)Nc2ccc(Cl)cn2)cc1	-42.9
CCN1CCN(c2ccc(S(=O)(=O)N3CCCCC3)cc2NC(=O)c2ccc(C)o2)CC1	-75.7
COc1cccc(C2CCCCN(C)C2=O)c1 (centres unmarked)	-9.67
O=C(CN(Cc1ccc(F)cc1)C(=O)c1ccco1)NCc1ccc(F)cc1	-40.9
Cn1c(=O)c2c(ncn2CC(=O)Nc2nc(-c3ccccc3Cl)cs2)n(C)c1=O	-3.18
Cc1ccccc1NC(=O)c1cnn(-c2ccccc2)c1NC(=O)c1ccco1	0.329
CCOc1ccccc1NC(=O)c1ccccc1-c1nc(-c2ccccc2)no1	4.07
Cn1nccc1C(=O)Nc1sc2c(c1C#N)CCCC2	9.68
Cc1noc(C)c1COc1ccc(C(=O)NCCOc2ccccc2)cc1	-35.8
COC(=O)C1=C(C)NC2=C(C(=O)CC(C)(C)C2)C1c1ccsc1 (centres unmarked)	-2.23
CCN(C(=O)COC(=O)c1ccccc1Nc1cccc(C)c1C)C1CCS(=O)(=O)C1 (centres unmarked)	2.59
O=C(CCNS(=O)(=O)c1cccc2nsnc12)NC1CCCc2ccccc21 (centres unmarked)	9.49
Cc1nc(SCC(=O)c2ccc(Cl)s2)c2oc3ccccc3c2n1	8.28
Cc1cc(C)c(C)c(OCCCOc2cccc3cccnc23)c1	2.72
COc1ccccc1-n1nnnc1SCC(=O)NCC1(N2CCOCC2)CCCCC1	-39.8
COc1cc(NC(=O)c2ccccc2Cl)ccc1NC(=O)c1cccs1	5.17
CCN=C1S/C(=C\c2ccc(OCC)c(OC)c2)C(=O)N1CC	-14

Compound	hERG current change (%, negative = inhibition) at 10uM [%]
CC1CCCCC12NC(=O)N(CC(=O)OCc1ccc(Br)cc1)C2=O (centres unmarked)	12.5
O=C(COC(=O)CN1C(=O)C2CCCCC2C1=O)Nc1cc(S(=O)(=O)N2CCOCC2)ccc1Cl (centres unmarked)	-12.6
COc1ccc(S(=O)(=O)N(CC(=O)N/N=C/c2ccccc2C(=O)O)c2ccccc2OC)cc1	6.67
Cc1c(NC(=S)NC(=O)C(c2ccccc2)c2ccccc2)cccc1C(=O)O	-3.41
c1ccc(N2CCN(c3ccc4nncn4n3)CC2)nc1	-36.3
COCc1cccc(NC(=O)Cc2cccc3ccccc23)c1	9.44
CC(C)OCCCNC(=O)C1CCN(S(=O)(=O)N2CCCC2)CC1	2.81
COC(=O)c1ccsc1NS(=O)(=O)c1ccccc1	19.3
CCOc1ccc(/C=N/NC(=O)c2cccc3ccccc23)c(OCC)c1	11.6
CCOc1ccccc1NC(=S)Nc1ccc(S(N)(=O)=O)cc1	-6.61
Cc1cc(C)nc(N2CCN(C(=O)CCC(=O)Nc3nnc(CC(C)C)s3)CC2)n1	-6.7
Cc1ccc(N(CC(=O)Nc2cc(C)ccc2C)S(C)(=O)=O)cc1	19.9
O=C(NC1CCCC1)c1cccc(Oc2ccccc2)c1	-2.9
O=C(c1cc2c(ccc3ccccc32)o1)N1CCN(c2ncc(C(F)(F)F)cc2Cl)CC1	6.46
COc1ccc(NC(=O)C(NC(=O)CNC(C)=O)c2ccc(C)cc2)cc1 (centres unmarked)	12.6
CC(C)CC(NC=C1C(=O)OC(C)(C)OC1=O)C(=O)O (centres unmarked)	-5.42
CN1C(C(=O)Nc2ccc(OC(F)(F)F)cc2)=CC(c2ccco2)=NS1(=O)=O	8.67
NS(=O)(=O)c1ccc(CCNC(=O)C2CCCCN2S(=O)(=O)c2ccccc2)cc1 (centres unmarked)	-6.11
Cc1ccc(NC(=O)CN2C(=O)NC(Cc3ccccc3)C2=O)cc1Cl (centres unmarked)	-2.75
CCN(CC)S(=O)(=O)c1ccc(-c2nnc(SCC(=O)Nc3ccc(OC)cc3)o2)cc1	-12.8
O=C1C=C(c2cccc(Cl)c2O)C[C@@H](c2ccc3c(c2)OCO3)C1	11.8
COCCNC(=S)N1CCCC(CO)C1 (centres unmarked)	2.05
COc1ccc(CCNC(=O)COc2ccc(-c3ccc(C#N)cc3)cc2)cc1	13.7

Compound	hERG current change (%, negative = inhibition) at 10uM [%]
Cc1cc(C(=O)NCc2cccc(Cl)c2)c2ccccc2n1	15.8
c1csc(C2Nc3cccc4cccc(c34)N2)c1	-17.2
O=C(CCCc1cccs1)NCCc1c[nH]c2ccccc12	6.58
CCCCN(C)CCCNC(=O)CN1C(=O)CSc2ccc(S(=O)(=O)N3CCOCC3)cc21	10.3
COc1ccccc1OCC(=O)OCC(=O)Nc1sccc1C(N)=O	19.1
CCOC(=O)CSc1cc(C)nc(NC(C)=O)n1	-0.404
COc1cc2c(cc1OC)C(Cc1ccc(O)cc1)N(C)CC2 (centres unmarked)	0.573
CN1CCCCc2c1nc1c(c2N)CCCC1	-4.15
O=C(NNC(=O)C1CC2CCC1C2)c1ccccc1 (centres unmarked)	7.7
OCCC1CN(Cc2cccc3c2OCO3)CCN1C1CCCCC1 (centres unmarked)	-9.67
CN(C)c1ccnc2sc(C(=O)c3ccccc3)c(N)c12	-11.2
C=CCN1C(=O)C(CCCC)NC1=S (centres unmarked)	3.62
CN(C)/C=C/C(=O)C(F)(F)F	-2.46
O=S1(=O)CCOC[C@H](CC2CCCCC2)N1Cc1cccc(F)c1	14.5
O=S(=O)(Nc1cccc(S(=O)(=O)N2CCOCC2)c1)c1ccc(Cl)s1	-1.76
COc1ccccc1NC(=O)c1c(N=Cc2c(O)ccc3ccccc23)cnn1C	18.4
COc1cc(OC)cc(C(=O)/C=C2\Sc3ccccc3N2C)c1	9.82
O=C(Nc1ccc2c(c1)OCCO2)C1CCN(c2cnccn2)CC1	4.73
CN(Cc1ccccc1)C(=O)Cn1nc(C(F)(F)F)c2c1CCC2	-2.3
COc1cccc(NC(=O)Nc2ccc3nsnc3c2)c1	10.9
COc1cc(-c2c(C#N)c(N)nc3c2c(C)nn3-c2ccc(C)c(C)c2)cc(OC)c1OC	13.3
COCCNC(=O)C(c1ccc(Cl)cc1)N(Cc1ccco1)C(=O)CCC(=O)Nc1ccccn1 (centres unmarked)	-14.1
O=C1C2C3C=CC(C3)C2C(=O)N1c1ccc2c(c1)OCO2 (centres unmarked)	0.751

Compound	hERG current change (%, negative = inhibition) at 10uM [%]
Fc1ccc(C2NC(=S)NC3=C2N2CCC3CC2)cc1 (centres unmarked)	-0.343
Cc1c(C(=O)NCc2cccs2)oc2ccc(S(=O)(=O)N3CCOCC3)cc12	-1.95
O=C(O)Cc1ccc(C(=O)c2ccc(Cl)cc2Cl)s1	-4.52
CCOC(=O)/C(C#N)=C1/SC(C)C(=O)N1c1ccc(Br)cc1 (centres unmarked)	-13.8
COc1ccc(OC)c(C(=O)CC2OC(=O)c3ccccc32)c1 (centres unmarked)	2.88
COc1ccc(/C(N)=N/OC(=O)/C=C/c2ccccc2)cc1	-37.2
CCOC(=O)c1ccc(Oc2nc(NC)nc(SC)n2)cc1	-1.71
COCCn1c(COc2ccc(C)cc2)nc2ccccc21	-11.9
NC(=O)CCn1c(C(=O)c2cc(Cl)c(N)c(Cl)c2)c2ccccc2[n+]1[O-]	17.9
Cc1c(C)n(C)c2ccc([N+](=O)[O-])cc12	-4.04
CC1CN(Cc2c(O)ccc3c2oc(=O)c2ccccc23)CC(C)O1 (centres unmarked)	1.4
COc1ccc(C(CNC(=O)c2ccc(S(=O)(=O)Nc3ccc(F)cc3)cc2)N(C)C)cc1 (centres unmarked)	-8.57
COc1ccc(-c2nc(N)c(C#N)c(-c3cccnc3)c2C)cc1	-12.4
C/C(=N\OCC(=O)Nc1cc(C)cc(C)c1)c1ccc2c(c1)OCCO2	-13
COc1ccc(Nc2ccnc(Nc3ccc(OC)cc3)n2)cc1	-1.05
CCOC(=O)c1csc(NC(=O)CN2CCN(C)CC2)n1	19
COc1cccc(NC(=O)N2CCN(S(C)(=O)=O)CC2)c1	4.99
CC(=O)c1ccc(NC(=O)CCc2nnc3ccc(NCc4ccco4)nn23)cc1	9.4
CCOC(=O)c1cc(NC(=O)N2CCCCC2)c(C)nc1C	16.6
Cc1cc(N2CCCC2)nc(N2C3CCC2CC(O)(c2ccc(F)cc2)C3)n1 (centres unmarked)	-48.3
